# Measured values reported in the supplement of paper PMC4967469.
# Key:
# Test in all cases: Viability of human cancer cell lines after 72 h of drug (GDSC screen)
# SB-715992 = compound: Cc1ccc(C(=O)N(CCCN)[C@@H](c2nc3cc(Cl)ccc3c(=O)n2Cc2ccccc2)C(C)C)cc1 [SB-715992]; conditions: top dose 0.128 µM; top dose inferred
# Procedure: (§1)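 Human cancer cell lines in 384-well plates, medium with 10% serum, drug for 72 h over a 256-fold dose range (nine 2-fold or five 4-fold steps up to the top dose). Adherent lines were fixed and stained with the nucleic acid dye Syto60, suspension lines read with resazurin; signal relative to control wells, capped at 0 and 100%. One two-parameter sigmoid per drug and line, fitted in a mixed model over all curves with the slope shared within a line.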
# AMG-706 = compound: CC1(C)CNc2cc(NC(=O)c3cccnc3NCc3ccncc3)ccc21 [AMG-706]; conditions: top dose 2 µM; top dose inferred
# Procedure: as §1
# Docetaxel = compound: CC(=O)O[C@@]12CO[C@@H]1C[C@H](O)[C@@]1(C)C(=O)[C@H](O)C3=C(C)[C@@H](OC(=O)[C@H](O)[C@@H](NC(=O)OC(C)(C)C)c4ccccc4)C[C@@](O)([C@@H](OC(=O)c4ccccc4)[C@H]21)C3(C)C [Docetaxel]; conditions: top dose 0.0125 µM
# Procedure: as §1
# FTI-277 = compound: COC(=O)[C@H](CCSC)NC(=O)c1ccc(NC[C@@H](N)CS)cc1-c1ccccc1 [FTI-277]; conditions: top dose 1.024 µM; top dose inferred
# Procedure: as §1
# JNK Inhibitor VIII = compound: CCOc1nc(NC(=O)Cc2cc(OC)ccc2OC)cc(N)c1C#N [JNK Inhibitor VIII]; conditions: top dose 10 µM; top dose inferred
# Procedure: as §1
# OSI-906 = compound: C[C@]1(O)C[C@@H](c2nc(-c3ccc4ccc(-c5ccccc5)nc4c3)c3c(N)nccn32)C1 [OSI-906]; conditions: top dose 2.56 µM; top dose inferred
# Procedure: as §1
# NSC-207895 = compound: CN1CCN(c2ccc([N+](=O)[O-])c3no[n+]([O-])c23)CC1 [NSC-207895]; conditions: top dose 20 µM; top dose inferred
# Procedure: as §1
# JQ1 = compound: Cc1sc2c(c1C)C(c1ccc(Cl)cc1)=N[C@@H](CC(=O)OC(C)(C)C)c1nnc(C)n1-2 [JQ1]
# Procedure: as §1
# Belinostat = compound: O=C(/C=C/c1cccc(S(=O)(=O)Nc2ccccc2)c1)NO [Belinostat]; conditions: top dose 20 µM; top dose inferred
# Procedure: as §1
# JNJ-26854165 = compound: c1ccc2c(CCNc3ccc(Nc4ccncc4)cc3)c[nH]c2c1 [JNJ-26854165]; conditions: top dose 10 µM
# Procedure: as §1
# YM155 = compound: COCC[n+]1c2c(n(Cc3cnccn3)c1C)C(=O)c1ccccc1C2=O [YM155]; conditions: top dose 5.12 µM
# Procedure: as §1
# [1] = top dose 1 µM, screen: GDSC drug entry 1218, top dose inferred
# [2] = top dose 2.56 µM, screen: GDSC drug entry 163
cell line,measurement,setting,value
"KYSE-50 (oesophagus, adherent)",AUC,SB-715992,0.791
same,IC50,SB-715992,52.3 nM
same,AUC,AMG-706,0.981
same,IC50,AMG-706,> 2000 nM
same,AUC,Docetaxel,0.684
same,IC50,Docetaxel,2.43 nM
same,AUC,FTI-277,0.981
same,IC50,FTI-277,> 1020 nM
same,AUC,JNK Inhibitor VIII,0.99
same,IC50,JNK Inhibitor VIII,> 10 µM
same,AUC,OSI-906,0.702
same,IC50,OSI-906,557 nM
same,AUC,NSC-207895,0.881
same,IC50,NSC-207895,17.8 µM
same,AUC,JQ1; [1],0.989
same,IC50,JQ1; [1],> 1000 nM
same,AUC,JQ1; [2],0.39
same,IC50,JQ1; [2],82.1 nM
same,AUC,Belinostat,0.397
same,IC50,Belinostat,668 nM
same,AUC,JNJ-26854165,0.863
same,IC50,JNJ-26854165,7.45 µM
same,AUC,YM155,0.064
same,IC50,YM155,< 20 nM
"BFTC-905 (bladder, adherent)",AUC,SB-715992,0.728
same,IC50,SB-715992,31.7 nM
same,AUC,AMG-706,0.949
same,IC50,AMG-706,> 2000 nM
same,AUC,Docetaxel,0.39
same,IC50,Docetaxel,0.408 nM
same,AUC,FTI-277,0.99
same,IC50,FTI-277,> 1020 nM
same,AUC,JNK Inhibitor VIII,0.952
same,IC50,JNK Inhibitor VIII,> 10 µM
same,AUC,OSI-906,0.642
same,IC50,OSI-906,371 nM
same,AUC,NSC-207895,0.799
same,IC50,NSC-207895,8.08 µM
same,AUC,JQ1; [1],0.989
same,IC50,JQ1; [1],> 1000 nM
same,AUC,JQ1; [2],0.507
same,IC50,JQ1; [2],166 nM
same,AUC,Belinostat,0.476
same,IC50,Belinostat,1090 nM
same,AUC,JNJ-26854165,0.827
same,IC50,JNJ-26854165,4.98 µM
same,AUC,YM155,0.019
same,IC50,YM155,< 20 nM
"HT55 (large intestine, adherent)",AUC,SB-715992,0.982
same,IC50,SB-715992,> 128 nM
same,AUC,AMG-706,0.99
same,IC50,AMG-706,> 2000 nM
same,AUC,Docetaxel,0.863
same,IC50,Docetaxel,10.8 nM
same,AUC,FTI-277,0.99
same,IC50,FTI-277,> 1020 nM
same,AUC,JNK Inhibitor VIII,0.99
same,IC50,JNK Inhibitor VIII,> 10 µM
same,AUC,OSI-906,0.985
same,IC50,OSI-906,> 2560 nM
same,AUC,NSC-207895,0.99
same,IC50,NSC-207895,> 20 µM
same,AUC,JQ1; [1],0.99
same,IC50,JQ1; [1],> 1000 nM
same,AUC,JQ1; [2],0.955
same,IC50,JQ1; [2],> 2560 nM
same,AUC,Belinostat,0.543
same,IC50,Belinostat,1640 nM
same,AUC,JNJ-26854165,0.962
same,IC50,JNJ-26854165,> 10 µM
same,AUC,YM155,0.984
same,IC50,YM155,> 5120 nM
"IPC-298 (melanoma, adherent)",AUC,SB-715992,0.955
same,IC50,SB-715992,> 128 nM
same,AUC,AMG-706,0.975
same,IC50,AMG-706,> 2000 nM
same,AUC,Docetaxel,0.645
same,IC50,Docetaxel,1.96 nM
same,AUC,FTI-277,0.963
same,IC50,FTI-277,> 1020 nM
same,AUC,JNK Inhibitor VIII,0.986
same,IC50,JNK Inhibitor VIII,> 10 µM
same,AUC,OSI-906,0.959
same,IC50,OSI-906,> 2560 nM
same,AUC,NSC-207895,0.791
same,IC50,NSC-207895,8.85 µM
same,AUC,JQ1; [1],0.708
same,IC50,JQ1; [1],239 nM
same,AUC,JQ1; [2],0.729
same,IC50,JQ1; [2],709 nM
same,AUC,Belinostat,0.316
same,IC50,Belinostat,386 nM
same,AUC,JNJ-26854165,0.804
same,IC50,JNJ-26854165,4.91 µM
same,AUC,YM155,0.029
same,IC50,YM155,< 20 nM
"TGBC11TKB (stomach, adherent)",AUC,SB-715992,0.982
same,IC50,SB-715992,> 128 nM
same,AUC,AMG-706,0.99
same,IC50,AMG-706,> 2000 nM
same,AUC,Docetaxel,0.876
same,IC50,Docetaxel,9.95 nM
same,AUC,FTI-277,0.99
same,IC50,FTI-277,> 1020 nM
same,AUC,JNK Inhibitor VIII,0.989
same,IC50,JNK Inhibitor VIII,> 10 µM
same,AUC,OSI-906,0.98
same,IC50,OSI-906,> 2560 nM
same,AUC,NSC-207895,0.992
same,IC50,NSC-207895,> 20 µM
same,AUC,JQ1; [1],0.974
same,IC50,JQ1; [1],> 1000 nM
same,AUC,JQ1; [2],0.953
same,IC50,JQ1; [2],> 2560 nM
same,AUC,Belinostat,0.47
same,IC50,Belinostat,1050 nM
same,AUC,JNJ-26854165,0.97
same,IC50,JNJ-26854165,> 10 µM
same,AUC,YM155,0.633
same,IC50,YM155,710 nM

# Lines with a small IC50 respond at low doses; a fit beyond the top or the lowest dose is shown as a bound at that dose. The AUC spans the tested range (256-fold, ending at the top dose) of the same fit; values near 1 show little effect. For part of these data: A top dose marked as inferred was calculated from the reported fits. For part of these data: Drugs with an entry number were screened twice under separate entries, and the two screens often disagree.
